From PubChem BioAssay AID1963958 (Molecular Pharmacology Branch, DTP, NCI, 2024) come the findings set out here.

Each structure is given as a SMILES string. The source holds more than one record for some entries. This is not the full list of results. An entry can have further records. Results that share an entry repeat one measurement in other runs, samples, wells, individuals or studies.

The assay relates to MDA-MB-231 multicell spheroids, viability. Description: Anticancer human tumor MDA-MB-231 cell line growth inhibition [PI3K].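 As to all read-outs here: spheroids exposed to agents for seven days before reading.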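 As to viability, T/C: percent of vehicle control luminescence with DMSO treated spheroids as 100%.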 To be noted: for viability, T/C: stronger effect = lower value; for IC50: compound alone. The source says: Combinatorial screen of targeted agents with the PI3K inhibitors inavolisib, alpelisib, duvelisib, and copanlisib in multi-cell type tumor spheroids
A high-throughput screen of multi-cell type tumor spheroids was designed to identify active combinations of targeted small molecules and PI3K pathway inhibitors. Complex spheroids include a stromal component modeled by human endothelial cells (HUVEC) and fibroblasts modeled by human mesenchymal stem cells (MSCs). The concentration ranges selected for each drug and investigational agent were based upon clinically achievable concentrations if the clinical Cmax of the agent was known.
Compounds. The drugs and investigational agents: inavolisib (NSC800729), alpelisib (NSC765974), duvelisib (NSC772469), copanlisib (NSC816437), ipatasertib (NSC767898), afuresertib (NSC778305), talazoparib (NSC767125), sapanisertib (NSC764658), selumetinib (NSC741078), tovorafenib (DAY101, NSC766906), vemurafenib (NSC761431), ravoxertinib (NSC781343), sotorasib (NSC818433), MRTX1133 (NSC 836407), abemaciclib (NSC 768073), palbociclib (NSC758247), venetoclax (NSC 766270), SY5609 (NSC837396), enzalutamide (NSC755605), and darolutamide (NSC825331), were obtained from the National Cancer Institute (NCI) Developmental Therapeutics Program Chemical Repository. The FDA-approved anticancer drug set is available from the NCI Developmental Therapeutics Program. […] The stock solutions were prepared in dimethyl sulfoxide (DMSO, Sigma-Aldrich, St. Louis, MO, cat. D2650) at 800-fold the tested concentration and stored at -70 degrees C prior to their use. All drugs and investigational agents were tested over a range starting from a high concentration at or near the clinical Cmax and decreasing in half-log increments. If the clinical Cmax for an agent had not been determined, the highest concentration tested was 10 microM.
Cell Culture. All cells were maintained in an incubator at 37 degrees C and 5% CO2 with 95% humidity. The PDC lines were cultured according to standard operating procedures established by the NCI PDMR (https://pdmr.cancer.gov/sops/default.htm). All PDCs were thawed and cultured in Matrigel-coated flasks prepared with a working solution of 1X Ham's F-12 nutrient mix, without supplementation (Invitrogen, Waltham, MA, cat. 11765054), 100 U/mL penicillin-streptomycin (Invitrogen, cat. 15140122), and 2.5% Matrigel (Corning Inc., Corning, NY, cat. 354248) for the first three passages. The 354836-022-R-J1-PDC, 475296-252-R-J1-PDC, and 997726-040-R-J2-PDC lines were cultured in 6A media, which includes advanced DMEM/F-12 (Thermo Fisher Scientific, cat. 12634028), 10 mM HEPES (Thermo Fisher Scientific, cat. 15630080), 1X GlutaMAX supplement (Thermo Fisher Scientific, cat. 35050061), 0.1 mg/mL primocin (InvivoGen, San Diego, CA, cat. ant-pm-2), 10% defined fetal bovine serum, heat inactivated (HyClone Laboratories Inc., Logan, UT, cat. SH30070.03HI), 50% L-WRN conditioned media (ATCC, cat. CRL-3276), 1.25 mM N-Acetyl-L-cysteine (Sigma-Aldrich, cat. A9165), 10 mM nicotinamide (Sigma-Aldrich, cat. N0636), 1X B-27 supplement (Thermo Fisher Scientific, cat. 17504044), 1X N-2 supplement (Thermo Fisher Scientific, cat. 17502048), and 10 microM Y-27632 dihydrochloride (Tocris Bioscience, Bristol, United Kingdom, cat. 1254). The 624824-186-R-J2-PDC line was cultured in 6C/Colon 1B media, which includes all 6A media components plus 50 ng/mL human EGF recombinant protein (Thermo Fisher Scientific, cat. PHG0311). […]

`C=CC(=O)N1CCN(c2nc(=O)n(-c3c(C)ccnc3C(C)C)c3nc(-c4c(O)cccc4F)c(F)cc23)C(C)C1` (stereo not given): where the note is “compound alone 1 µM”, the viability, T/C (usually the ratio of treated to control) was 101, 107, 130, 123%.

Turning to `C#Cc1c(F)ccc2cc(O)cc(-c3ncc4c(N5CC6CCC(C5)N6)nc(OCC56CCCN5CC(F)C6)nc4c3F)c12` (stereo not given), the viability, T/C (compound alone 3.16 µM) was 69.4, 81, 88.1, 95.5%. As to `Cn1ncnc1[C@H]1c2n[nH]c(=O)c3cc(F)cc(c23)N[C@@H]1c1ccc(F)cc1`, the viability, T/C (compound alone 0.001 µM) is listed as 104, 81, 110, 97.4%. For `CC1(C)CCC(CN2CCN(c3ccc(C(=O)NS(=O)(=O)c4ccc(NCC5CCOCC5)c([N+](=O)[O-])c4)c(Oc4cnc5[nH]ccc5c4)c3)CC2)=C(c2ccc(Cl)cc2)C1`, the IC50 (usually the point on the concentration scale where inhibition reaches its midpoint) is given as 6.56 µM, 6.93 µM, 7.24 µM, > 10 µM. For the setting “compound alone 10 µM”, the viability, T/C is recorded as 16.1, 23.3, 27.6, 107%. Consider `CC(Nc1ncnc2nc[nH]c12)c1cc2cccc(Cl)c2c(=O)n1-c1ccccc1` (stereo not given), for which, for the setting “run of 05/09/2023”, the IC50 is given as > 10 µM, 9.92 µM, 7.98 µM, 7.71 µM. Take `C[C@@H](NC(=O)c1ncnc(N)c1Cl)c1ncc(C(=O)Nc2cc(C(F)(F)F)c(Cl)cn2)s1`: the viability, T/C was 89.2, 102, 130, 120% (compound alone 0.1 µM); 82.3, 81, 107, 116% (compound alone 0.316 µM); 78.8, 90.5, 96.1, 104% (compound alone 1 µM).

Take `CCN1CCN(Cc2ccc(Nc3ncc(F)c(-c4cc(F)c5nc(C)n(C(C)C)c5c4)n3)nc2)CC1`: the IC50 was 361 nM, 213 nM, > 1 µM, 410 nM.
